# From the supplement of paper PMC8728848
# This is one part of the list.
# Tests used:
# Experiment in all cases: glycan array binding signal (z-score within array); higher = stronger binding
# Conditions in all cases: glycan notation: IUPAC condensed, linker removed; mutation: E227A
# [1] = molecular target: Gal3S(b1-3)[Fuc(a1-4)]GlcNAc
# Procedure, shortened: (§1)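 Glycan array binding is given as a within-array Z-score, which can be read as non-binding when negative. The arrays, 3228 of them, came from the Consortium for Functional Glycomics database and were retained only where the protein sequence was available. Z-scores were averaged across arrays of the same protein sequence at different concentrations or buffers and across linkers.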
# Gal3S(b1-4)Glc = molecular target: Gal3S(b1-4)Glc
# Procedure, shortened: as §1
# Gal3S(b1-4)Glc6S = molecular target: Gal3S(b1-4)Glc6S
# Procedure, shortened: as §1
# Gal3S(b1-4)GlcNAc = molecular target: Gal3S(b1-4)GlcNAc
# Procedure, shortened: as §1
# [2] = molecular target: Gal3S(b1-4)[Fuc(a1-3)]Glc6S
# Procedure, shortened: as §1
# [3] = molecular target: Gal3S(b1-4)[Fuc(a1-3)]GlcNAc
# Procedure, shortened: as §1
# [4] = molecular target: Gal3S(b1-4)[Fuc(a1-3)]GlcNAc6S
# Procedure, shortened: as §1
# Gal3S4S(b1-4)GlcNAc = molecular target: Gal3S4S(b1-4)GlcNAc
# Procedure, shortened: as §1
# Gal3S6S(b1-4)GlcNAc = molecular target: Gal3S6S(b1-4)GlcNAc
# Procedure, shortened: as §1
# Gal3S6S(b1-4)GlcNAc6S = molecular target: Gal3S6S(b1-4)GlcNAc6S
# Procedure, shortened: as §1
# Gal4S(b1-4)GlcNAc = molecular target: Gal4S(b1-4)GlcNAc
# Procedure, shortened: as §1
# Gal4S6S(b1-4)GlcNAc = molecular target: Gal4S6S(b1-4)GlcNAc
# Procedure, shortened: as §1
# Gal6P(b1-4)GlcNAc = molecular target: Gal6P(b1-4)GlcNAc
# Procedure, shortened: as §1
# Gal6S(b1-3)GlcNAc = molecular target: Gal6S(b1-3)GlcNAc
# Procedure, shortened: as §1
# Gal6S(b1-3)GlcNAc6S = molecular target: Gal6S(b1-3)GlcNAc6S
# Procedure, shortened: as §1
# Gal6S(b1-4)Glc = molecular target: Gal6S(b1-4)Glc
# Procedure, shortened: as §1
# Gal6S(b1-4)Glc6S = molecular target: Gal6S(b1-4)Glc6S
# Procedure, shortened: as §1
# Gal6S(b1-4)GlcNAc = molecular target: Gal6S(b1-4)GlcNAc
# Procedure, shortened: as §1
# Gal6S(b1-4)GlcNAc6S = molecular target: Gal6S(b1-4)GlcNAc6S
# Procedure, shortened: as §1
# GalNAc(a1-3)Gal = molecular target: GalNAc(a1-3)Gal
# Procedure, shortened: as §1
# GalNAc(a1-3)GalNAc = molecular target: GalNAc(a1-3)GalNAc
# Procedure, shortened: as §1
# [5] = molecular target: GalNAc(a1-3)GalNAc(b1-3)Gal(a1-4)Gal(b1-4)Glc
# Procedure, shortened: as §1
# [6] = molecular target: GalNAc(a1-3)GalNAc(b1-3)Gal(a1-4)Gal(b1-4)GlcNAc
# Procedure, shortened: as §1
# GalNAc(b1-3)Gal = molecular target: GalNAc(b1-3)Gal
# Procedure, shortened: as §1
# [7] = molecular target: GalNAc(b1-3)Gal(a1-4)Gal(b1-4)GlcNAc
# Procedure, shortened: as §1
# [8] = molecular target: GalNAc(b1-3)Gal(a1-4)Gal(b1-4)GlcNAc(b1-3)Gal(b1-4)Glc
# Procedure, shortened: as §1
# [9] = molecular target: GalNAc(b1-3)Gal(a1-6)Gal(b1-4)Glc
# Procedure, shortened: as §1
# GalNAc(b1-3)GalNAc = molecular target: GalNAc(b1-3)GalNAc
# Procedure, shortened: as §1
# GalNAc(b1-3)GlcNAc = molecular target: GalNAc(b1-3)GlcNAc
# Procedure, shortened: as §1
# GalNAc(b1-4)Gal(b1-4)Glc = molecular target: GalNAc(b1-4)Gal(b1-4)Glc
# Procedure, shortened: as §1
binder,measurement,setting,value
"Epa1-NP-mutant-E227A (Candida glabrata), Q6VBJ0 (protein) MILNPALFLNKCVCIYTTLILLLLTNGGYATSSNDISLASKDPTTFPLGCSPDITTPKKGLSMELYSYDFRKKGSYPCWDAAYLDPNYPRTGYKSHRLLAKVDGVTGNINFYYHATKGCTPQLGHLPASYNYPKPLTMTNFTMLLYGYFRPKVTGFHTFTISADDLLFVNFGAGNAFDCCRRDSSADHFGNYQAYAIWGSKTAKDELTVHLDAGVYYPIRLFYNNRAYDGALSFTFKTESNENTVSDFSEYFFSLDDTEEGCPGLISYDSSCASVKTSKIIGIDYHTETPNENLVPITKTIYHLGIPCTGTTTTPLCGSGFYDPLANKCVTINTSSTSSVTKTTSHTTSKEVSFHSSISSQKTLIPKSIPSPYGPIKSQSIPTEMETSSEISSSEYAFSDVISTPSHSPYTKKHSSLNSSSYTSTVIHSLTSYSISQGIFSTSLSEQNITSKSSTDKFSTATSMSNNITQSSIIISQFSTNNENYTTTSMHTSSDKISTETLNNSISTTTSILFSNSSTILKNNTTIISSDKDTHYHPVNPTIVCSTNKTEIICASITQPSISNSNNHWSSSVLKFNSTTVRSTLPSSAGSNETSINVPFSSSTESNTSTSSTSTSNSKMVRSTLPSSAGSNETSISVPFSSSTESNTSTSSTSTSNSKMVRSTLPSSAGSNETSINVPFSSSTESNTSTSSTSTSNSKTVRSTPFSSAGIIMTSLSQRNNKSASSYASSNSKCYNTADSCRKVHSTPSYLLTSSYTSEGVDYDCSLVSTKLKINDTNCVNNKHTTKSCLKTSVTTTIPTLEIKTARKSSSNTIGLHSYPTSSPNKSISSAPIIGYISSFKTIKTASPSYQTSDLTTITTITSLNNPGSTAVENTHESNDKSRKTSSNDISSKHSVIKETKDAVESSNKSHQTNTLKCSSIIIASSSHNSYESLGGTTLTLTLSKVYSPQNNDTLPFLEISEVNPSRTVLPESSKMMQYLTSTEERNKTARNTIATNIVSISTFHFEGEGNAIRMGYTQLLLMLIGIIVMNIGT",glycan array binding signal (z-score),[1],-0.175
same,glycan array binding signal (z-score),Gal3S(b1-4)Glc,-0.193
same,glycan array binding signal (z-score),Gal3S(b1-4)Glc6S,-0.185
same,glycan array binding signal (z-score),Gal3S(b1-4)GlcNAc,-0.192
same,glycan array binding signal (z-score),[2],-0.143
same,glycan array binding signal (z-score),[3],-0.189
same,glycan array binding signal (z-score),[4],-0.203
same,glycan array binding signal (z-score),Gal3S4S(b1-4)GlcNAc,-0.21
same,glycan array binding signal (z-score),Gal3S6S(b1-4)GlcNAc,-0.185
same,glycan array binding signal (z-score),Gal3S6S(b1-4)GlcNAc6S,0.437
same,glycan array binding signal (z-score),Gal4S(b1-4)GlcNAc,-0.203
same,glycan array binding signal (z-score),Gal4S6S(b1-4)GlcNAc,-0.201
same,glycan array binding signal (z-score),Gal6P(b1-4)GlcNAc,0.568
same,glycan array binding signal (z-score),Gal6S(b1-3)GlcNAc,0.311
same,glycan array binding signal (z-score),Gal6S(b1-3)GlcNAc6S,1.88
same,glycan array binding signal (z-score),Gal6S(b1-4)Glc,4.56
same,glycan array binding signal (z-score),Gal6S(b1-4)Glc6S,6.39
same,glycan array binding signal (z-score),Gal6S(b1-4)GlcNAc,5.93
same,glycan array binding signal (z-score),Gal6S(b1-4)GlcNAc6S,15.2
same,glycan array binding signal (z-score),GalNAc(a1-3)Gal,-0.179
same,glycan array binding signal (z-score),GalNAc(a1-3)GalNAc,-0.184
same,glycan array binding signal (z-score),[5],-0.225
same,glycan array binding signal (z-score),[6],-0.186
same,glycan array binding signal (z-score),GalNAc(b1-3)Gal,-0.19
same,glycan array binding signal (z-score),[7],-0.162
same,glycan array binding signal (z-score),[8],-0.19
same,glycan array binding signal (z-score),[9],-0.218
same,glycan array binding signal (z-score),GalNAc(b1-3)GalNAc,-0.212
same,glycan array binding signal (z-score),GalNAc(b1-3)GlcNAc,-0.195
same,glycan array binding signal (z-score),GalNAc(b1-4)Gal(b1-4)Glc,-0.159
